In PubChem BioAssay AID488969 (Vanderbilt High Throughput Screening Facility, 2010):
Over roughly 110,000 compounds, “z-score” has its median near -0.1; the highest 2% begin near 2. Some of the results follow. Active and inactive are the calls of the source.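 The calls were made as follows: active = z-score in the third read window above 3 or below -3; inactive = the rest.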

What follows are compounds tested against Metabotropic glutamate receptor 8 (Rattus norvegicus) (UniProt P70579) (assay: mGluR8 Gi/Go-coupled signaling modulation – cell-based, rat, thallium flux, HTS, primary screen (AID 488969)). Settings: HEK293 rat mGluR8, GIRK (G protein-gated inwardly rectifying potassium channel) thallium flux, FluoZin2; at 10 µM; stronger effect = higher value; submaximal glutamate (EC20) added with thallium.
Sequence of UniProt P70579 (P70579 whole entry, looked up): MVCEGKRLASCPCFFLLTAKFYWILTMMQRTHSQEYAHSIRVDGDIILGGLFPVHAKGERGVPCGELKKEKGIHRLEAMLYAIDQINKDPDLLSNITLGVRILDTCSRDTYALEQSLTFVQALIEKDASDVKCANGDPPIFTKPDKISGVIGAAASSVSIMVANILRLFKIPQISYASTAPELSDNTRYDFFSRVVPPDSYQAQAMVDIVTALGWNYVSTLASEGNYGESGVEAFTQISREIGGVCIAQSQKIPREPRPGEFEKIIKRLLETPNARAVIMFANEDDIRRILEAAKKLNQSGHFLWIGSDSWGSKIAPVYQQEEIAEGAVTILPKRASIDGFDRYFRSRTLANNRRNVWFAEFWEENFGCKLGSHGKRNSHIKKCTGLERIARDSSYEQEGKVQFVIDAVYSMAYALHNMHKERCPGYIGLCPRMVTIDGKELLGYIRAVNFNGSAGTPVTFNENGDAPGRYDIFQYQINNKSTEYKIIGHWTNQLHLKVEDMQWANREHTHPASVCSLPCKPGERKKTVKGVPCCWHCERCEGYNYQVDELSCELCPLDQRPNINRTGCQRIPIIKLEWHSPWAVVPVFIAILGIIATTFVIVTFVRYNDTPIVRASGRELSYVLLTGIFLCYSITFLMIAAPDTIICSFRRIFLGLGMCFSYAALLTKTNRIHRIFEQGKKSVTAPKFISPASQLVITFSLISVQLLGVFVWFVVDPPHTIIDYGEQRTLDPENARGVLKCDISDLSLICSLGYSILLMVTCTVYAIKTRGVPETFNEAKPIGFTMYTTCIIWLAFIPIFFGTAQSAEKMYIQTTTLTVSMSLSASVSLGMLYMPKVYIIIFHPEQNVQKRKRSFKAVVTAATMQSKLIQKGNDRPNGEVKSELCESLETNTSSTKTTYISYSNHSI
`CCCS(=O)(=O)c1c(S(=O)(=O)CCC)c2c(N)cccn2c1C(=O)c1ccc(Br)cc1` showed a z-score of -0.206. `O=C(CCCCCn1c(=S)[nH]c2cc3c(cc2c1=O)OCO3)N1CCN(C(=O)c2ccco2)CC1` was tested, and the z-score was -0.209. `CCN1CCN(c2cc(C)c3cc(NC(=O)c4cccnc4Cl)ccc3n2)CC1` showed a z-score of 0.405. In the case of `O=C(Cc1ccccc1)NCC(=O)OCC(=O)c1cccs1`, the z-score is reported as -0.289. `COc1cc(OC)cc(C(=O)NCCCN2CCOCC2)c1` was tested, and the z-score was -0.0617. In the case of `O=C(Nc1ccc2c(c1)OCO2)C1CC(c2ccccc2Cl)=NO1` (stereo not drawn), the z-score is reported as -0.418. Work on `CCOC(=O)Nc1sc(C)c(C)c1C(=O)OCC` yielded a z-score of 0.104. Compound `Cc1cccc2cc(CN(CC3CCCO3)C(=S)Nc3ccccc3)c(=O)[nH]c12` (stereo not drawn) has a z-score of -0.146. `Cc1ccc(NC(=O)CN(C)S(=O)(=O)c2cccs2)cc1C` was tested, and the z-score was 0.632. In the case of `CCCCOC(=O)c1ccc(N2C(=O)CC(N3CCN(C/C=C/c4ccccc4)CC3)C2=O)cc1` (stereo not drawn), the z-score is reported as 0.587. For `COc1ccc(N2CCN(C(=O)CCNS(=O)(=O)c3ccc(Br)s3)CC2)cc1`, the z-score was -0.283. For `CCOc1ccccc1OCCCOc1ccc(C)cc1Cl`, the z-score was -0.147. `CCOC(=O)C1=C(CC)Nc2ccccc2N=C1NC(=O)c1ccc(S(=O)(=O)N(C)C)cc1` was tested, and the z-score was active: -3.65. `CS(=O)(=O)c1ccc2nc(NC(=O)c3cccs3)sc2c1` showed a z-score of 0.482. For `NC(=O)C1CCN(C2CC(=O)N(c3cccc(F)c3)C2=O)CC1` (stereo not drawn), the z-score was 0.0654. For `CCOC(=O)C1CCN(C(=O)CC(NS(=O)(=O)c2ccc(OC)cc2)C(C)C)CC1` (stereo not drawn), the z-score was -1.41. In the case of `CC(C)C(=O)NCCc1nc2ccccc2n1CCOc1ccccc1`, the z-score is reported as -0.149. For `COC(=O)C1=C(C(=O)OC)SC(=C2C(=S)C(C)(C)N(C(=O)C(C)C)c3ccccc32)S1`, the z-score was 0.293. `CCC(C)NC(=O)C1c2ccccc2C(=O)N1Cc1cc(OC)ccc1OC` (stereo not drawn) showed a z-score of -0.88. In the case of `O=C(CN(Cc1ccccc1)S(=O)(=O)c1ccccc1)NC1CC1`, the z-score is reported as 0.0708. `COc1cc(OC)cc(C(=O)Nn2cc(C(=O)N3CCN(C)CC3)c3ccccc3c2=O)c1` gave a z-score of 0.52. In the case of `Cc1cc(C)c(C(=O)/C=C/C=C/c2ccccc2)c(=O)[nH]1`, the z-score is reported as -0.044. Work on `COc1cccc2cc(C(=O)Nc3cccnc3N3CCOCC3)c(=O)oc12` yielded a z-score of -0.322. `Nc1nn(S(=O)(=O)c2cccc3nsnc23)cc1-c1ccc(Br)cc1` showed a z-score of -0.429. `CSc1ccccc1NC(=O)CN(C)CC(=O)Nc1cc(C)ccc1C` gave a z-score of -0.299. For `O=C(Nc1nc(-c2ccco2)cs1)c1ccccc1`, the z-score was 0.0664. Compound `O=C1c2ccccc2C(=O)N1c1nc2nccc(-c3ccccc3)n2n1` has a z-score of 0.406. Compound `Cc1ccc(S(=O)(=O)C2(C(=O)N(C)C3CCCCC3)CC2)cc1` has a z-score of -0.148. In the case of `Brc1ccc(-c2cnc3n2CCCC3)cc1`, the z-score is reported as 0.0393. `C=CCOc1ccc(/C=N/NC(=O)C(C)Sc2ccccn2)cc1OCC` (stereo not drawn) was tested, and the z-score was -0.807. With `COc1ccc(CCNC(=O)Cn2nnc(-c3ccccc3F)n2)cc1OC` the z-score was 0.148. With `O=C(O)CC(c1cccc(Cl)c1)n1cccc1` (stereo not drawn) the z-score was -0.123. With `CCCCN(CC)CCNC(=O)CN(C)S(=O)(=O)c1ccc2c(c1)c(=O)n(C)c(=O)n2C` the z-score was 0.104. `COc1ccc(C(=O)NCc2cn3cccc(C)c3n2)cc1OC` showed a z-score of 0.16. In the case of `CCN(CC)S(=O)(=O)c1ccc(C)c(NC(=O)/C=C/c2cccs2)c1`, the z-score is reported as -0.507. `C/C(=C1/SC(N2CCOCC2)=NC1=O)c1ccc(Br)cc1` showed a z-score of 0.0234. Compound `CC(=O)Oc1c(S(=O)(=O)c2ccc(C)cc2)c(C)nn1-c1ccccc1` has a z-score of 0.33. `CCOC(=O)Cc1csc(NC(=O)c2ccoc2C)n1` gave a z-score of -0.104. `COc1ccc(Nc2nc(NCc3ccco3)nc(N/N=C/c3ccc(O)cc3)n2)cc1` showed a z-score of 0.129. With `O=C(NCCN1CCOCC1)c1ccccc1[N+](=O)[O-]` the z-score was 0.69. For `N#Cc1cc2ccc(N3CCOCC3)cc2cc1C#N`, the z-score was 0.856. `COc1ccc(OC)c2[nH]c(=O)c(CCNC(=O)c3ccc(Br)o3)cc12` showed a z-score of -0.34. `COC(=O)c1ccccc1COn1c(=O)c[n+]([O-])c2ccccc21` gave a z-score of 0.644. For `COC(=O)c1[nH]c2ccc(C)cc2c1NC(=O)CN1CCCc2ccccc21`, the z-score was -0.0122. With `CON(c1nc(N(C)C)nc(N(C)C)n1)S(=O)(=O)c1ccccc1Cl` the z-score was -0.678. `CC1(C(=O)OCC(=O)N2c3ccccc3Sc3ccccc32)CC1(Cl)Cl` (stereo not drawn) gave a z-score of -0.219. Compound `Cn1cc([N+](=O)[O-])c(C(=O)Nc2ccc3nc(-c4ccccc4)[nH]c3c2)n1` has a z-score of -0.514. For `COc1ccccc1C(=O)N/C(=C\c1ccc(Br)cc1)C(=O)NCC(=O)O`, the z-score was -0.086. `COc1ccc2cc(/C(C)=N/NC(=O)c3cc(-c4cccnc4)nc4ccccc34)ccc2c1` gave a z-score of -0.25. `CCOC(=O)C1=C(c2ccccc2)N=C2SCC(=O)N2C1c1ccc(OC)c(OC)c1` (stereo not drawn) was tested, and the z-score was -0.362. `OC1CN=C2C=CC=CN2C1` (stereo not drawn) showed a z-score of -0.452. `C/C=C/Cn1c(Br)nc2c1c(=O)n(C)c(=O)n2C` was tested, and the z-score was 1.47. With `CCN(CC)S(=O)(=O)c1cccc(S(=O)(=O)c2cccc(S(=O)(=O)N(CC)CC)c2)c1` the z-score was 1.61. Compound `COc1ccc(C(=O)NCCC2=CCCCC2)cc1OC` has a z-score of -0.214. With `C=CCn1c(SCC(=O)Nc2c(C)n(C)n(-c3ccccc3)c2=O)nc2scc(-c3ccccc3)c2c1=O` the z-score was -0.769. In the case of `Cc1ccc(-n2c([O-])nc(-[n+]3ccccc3)c2C=O)cc1`, the z-score is reported as -0.0804. `CCCCOc1[nH]c2nc(-c3ccco3)n(Cc3ccco3)c(=N)c2c1C#N` showed a z-score of -0.772. `Clc1ccccc1-c1cc(COc2ccc3ccccc3c2)no1` gave a z-score of 0.574. `CCOC(=O)c1c(C)[nH]c(C(=O)N/N=C\c2ccccc2Cl)c1C` was tested, and the z-score was -0.0744. In the case of `CCN(CC)C(=O)CSc1nc(N)c2c3c(sc2n1)CC(C)CC3` (stereo not drawn), the z-score is reported as 0.425. With `CCN(CC)S(=O)(=O)c1ccc(N2CCCCC2)c(NC(=O)/C=C/c2ccc(OC)c(OC)c2)c1` the z-score was -0.574. With `Cc1cc(NS(=O)(=O)c2ccc(NC(=O)CCc3ccccc3)cc2)no1` the z-score was -0.156. Compound `O=C1CC(c2nc3ccccc3[nH]2)CN1Cc1ccccc1` (stereo not drawn) has a z-score of -1.62. In the case of `Cc1nc(-c2ccccc2)sc1C(=O)CSc1ccc(Cl)cc1`, the z-score is reported as 0.134. Compound `Cc1ccc2c(C(=O)CSc3ccccc3)c(C)[nH]c2c1` has a z-score of -0.175. `CC1=CC(C)(C)N(C(=O)CSc2nnc(N)s2)c2c(C)cc(C)cc21` was tested, and the z-score was 0.0243. `O=C(Nc1c(F)cccc1F)c1cnc(N2CCN(c3ccccn3)CC2)c2ccccc12` gave a z-score of -1.38. `CCOC(=O)c1cnc(SC)nc1Oc1cccc(NC(=O)c2ccc(C)cc2)c1` was tested, and the z-score was 0.206. Work on `O=C(CNC(=S)NC(=O)c1cccc([N+](=O)[O-])c1)c1ccccc1` yielded a z-score of 0.411. With `CC(=O)NC1=NN(C(C)=O)C(C)(c2ccc3ccccc3c2)S1` (stereo not drawn) the z-score was -0.0871. `CCOc1ccc(NC(=O)CNC(=O)c2cn(-c3ccccc3OC)c(=O)c3ccccc23)cc1` gave a z-score of -0.0758. `Cc1cc(Nc2cccc([N+](=O)[O-])c2)n2c(nc3ccccc32)c1C#N` gave a z-score of 0.0405. In the case of `CCOC(=O)C1CCCN(C(=O)Nc2ccccc2)C1` (stereo not drawn), the z-score is reported as -0.0608. `COc1ccc(-c2nc(CNS(=O)(=O)c3ccc(OC)c(OC)c3)cs2)cc1` gave a z-score of -0.711. `O=C(O)CN(c1ccccc1)C1SC(=O)NC1=O` (stereo not drawn) was tested, and the z-score was -0.0565. Compound `COc1ccc(C2=C/C(=C/c3cccnc3)C(=O)O2)cc1OC` has a z-score of -0.178. `CCNc1[nH]c(=O)n(C)c(=O)c1N=O` gave a z-score of -0.0278. Compound `O=C(O)c1ccc(Oc2cccc([N+](=O)[O-])c2)cc1C(=O)O` has a z-score of 0.0004. In the case of `COCCn1c(C)cc(C(=O)CSc2cc(C)c3ccccc3n2)c1C`, the z-score is reported as 0.0693. `CC1(N2CCCCC2)CC2(O)C(=[N+]1[O-])CCC/C2=N\O` (stereo not drawn) showed a z-score of 1.09. `Cn1c(=O)c2c(n(Cc3ccccc3)c1=O)NC(=O)C2CC(=O)O` (stereo not drawn) gave a z-score of 0.127. With `CC1Cc2ccccc2N1C(=O)COC(=O)Cn1cnc2ccccc2c1=O` (stereo not drawn) the z-score was -0.55. In the case of `S=c1nc[nH]c2c1sc1nc(-c3ccccc3)c3c(c12)CCCC3`, the z-score is reported as active: 7.83. In the case of `O=C(NC1CCCCCC1)c1ccccc1-c1ccccc1`, the z-score is reported as -0.423. In the case of `CCn1nc(C)c(NC(=O)/C=C/c2cnn(C)c2C)c1C`, the z-score is reported as 0.775. In the case of `CCC1=NNc2cccc3c(OC)ccc1c23`, the z-score is reported as -0.517. `CCCC(=O)Nc1c(C)n[nH]c1C` showed a z-score of -0.199. `Cc1nnc(SCC(=O)N/N=C/c2cn(-c3ccccc3)nc2-c2ccc(F)cc2)n1-c1ccccc1` gave a z-score of -0.987. `COc1ccc(C(O)c2nc3ccccc3s2)cc1` (stereo not drawn) gave a z-score of -0.214. Work on `CC(=O)Nc1ccc(S(=O)(=O)N(Cc2ccccc2)C(C)C)cc1` yielded a z-score of -0.457. Compound `CCN(CC)c1ccc(NC(=O)c2ccco2)c(C)c1` has a z-score of 0.295. `O=c1oc2cc(Cl)ccc2n1CSc1nc2ccccc2s1` gave a z-score of -0.971. In the case of `O=C(Nc1ccc(Cl)cc1)Nc1nnc(CSCc2ccc(Cl)cc2)s1`, the z-score is reported as -0.0388. For `CN1CCN(CC(=O)Nc2ccc(Cl)cc2Cl)CC1`, the z-score was 0.743. `Cc1cccc2cc(-c3nc4c(C)cccn4c3NCc3ccco3)c(=O)[nH]c12` gave a z-score of -0.347. With `O=[N+]([O-])c1ccccc1-c1ccc(/C=N/n2cnnc2)o1` the z-score was -0.255. `O=C(/C=C/c1c(Cl)cccc1Cl)NCc1ccco1` gave a z-score of 0.108. For `Cc1ccc(-n2c(SCC(=O)N/N=C/c3c(C)nn(-c4ccccc4)c3C)nc3ccccc3c2=O)cc1`, the z-score was -0.402. Work on `N#Cc1ccc(COC(=O)c2ccc(N3CCCC3)c([N+](=O)[O-])c2)cc1` yielded a z-score of 0.0161. In the case of `CCOC(=O)C1=C(C)Nc2ccccc2N=C1NC(=O)Cc1ccc(Br)cc1`, the z-score is reported as 0.617. In the case of `O=C(CN1C(=O)CCS(=O)(=O)c2ccccc21)NCc1ccccc1`, the z-score is reported as 0.305. Work on `CC(=O)c1ccc(Sc2ccccc2)cc1` yielded a z-score of 0.117. Compound `COc1ccc(/C=N/N=C2/NC(=O)C(CC(=O)O)S2)cc1OCc1ccc(Cl)cc1` (stereo not drawn) has a z-score of 0.15. Work on `CN=C1CC(SC)=C1c1ccc(C)cc1` yielded a z-score of 0.256. With `O=C(N/N=C/c1ccc(OC(=O)c2ccccc2)c([N+](=O)[O-])c1)c1ccc(O)cc1` the z-score was -0.231. `CCOC(=O)Cc1csc(NC(=O)COc2ccc(OC)cc2)n1` gave a z-score of 0.0541. Work on `COc1ccccc1C1CC(c2ccc(Cl)cc2)Nc2ncnn21` (stereo not drawn) yielded a z-score of -0.498. In the case of `Clc1ccc(N/N=C/c2cccnc2)cc1`, the z-score is reported as -0.296.
